Assay results: article PMC3792642 (Acta Crystallographica Section D: Biological Crystallography, 2013)

Biological target: MtbDsbA (Rv2969c) (Mycobacterium tuberculosis, UniProt O33272)
Assay: ITC of VKOR-derived peptides binding to MtbDsbA
Parameters: species or system Mycobacterium tuberculosis H37Rv
Settings: 19 x 2 µl injections of 2-4 mM peptide into 100 µM MtbDsbA, 25 mM HEPES pH 7.4, 100 mM NaCl, 298 K, single-site fit, mean and SD of curve fits from two ITC runs, n.b. = no binding detected

Substance	K d,app (apparent dissociation constant)
VPSLNV (Ac-VPSLNV-NH2)	n.b.
YVPSANV (Ac-YVPSANV-NH2)	n.b.
